# This is a selection; strong and weak results do not stand in their true shares. The list includes weakly bound sequences.
# Tests used:
# Experiment in all cases: protein-binding microarray (PBM)
# Conditions in all cases: PBM: ~300 nM protein, 6 mM HEPES pH 7.8, 80 mM KCl, 0.5 mM EDTA, 0.5 mM EGTA, 6% glycerol, 35 ng/ul poly-dIdC, 1% milk, 1 h, room temperature; Ap Aiptasia and Nv Nematostella (sea anemones) / Co Capsaspora / Aq Amphimedon (sponge) / Dm Drosophila / Hu human; RHD is the Rel homology domain; high values mean tight binding; most listed sequences are background and not binding sites; double strand, one strand shown
# [1] = target: T1, GST-Ap-NF-kB RHD (UniProt A0A913YAJ5)
# T1 sequence: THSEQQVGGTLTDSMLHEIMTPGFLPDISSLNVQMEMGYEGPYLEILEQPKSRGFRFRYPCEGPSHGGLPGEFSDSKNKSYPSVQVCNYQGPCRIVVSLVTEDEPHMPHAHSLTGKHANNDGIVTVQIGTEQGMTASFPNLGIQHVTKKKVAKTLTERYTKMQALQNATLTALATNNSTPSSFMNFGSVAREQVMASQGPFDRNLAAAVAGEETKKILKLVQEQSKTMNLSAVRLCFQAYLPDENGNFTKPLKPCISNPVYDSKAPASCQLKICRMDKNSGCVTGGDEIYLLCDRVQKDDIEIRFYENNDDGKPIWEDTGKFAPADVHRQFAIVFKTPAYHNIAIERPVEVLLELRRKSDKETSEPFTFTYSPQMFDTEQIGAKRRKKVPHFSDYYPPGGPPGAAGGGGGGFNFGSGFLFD
# [2] = target: T2, GST-Nv-NF-kB (Cys allele) (UniProt E5G601)
# T2 sequence: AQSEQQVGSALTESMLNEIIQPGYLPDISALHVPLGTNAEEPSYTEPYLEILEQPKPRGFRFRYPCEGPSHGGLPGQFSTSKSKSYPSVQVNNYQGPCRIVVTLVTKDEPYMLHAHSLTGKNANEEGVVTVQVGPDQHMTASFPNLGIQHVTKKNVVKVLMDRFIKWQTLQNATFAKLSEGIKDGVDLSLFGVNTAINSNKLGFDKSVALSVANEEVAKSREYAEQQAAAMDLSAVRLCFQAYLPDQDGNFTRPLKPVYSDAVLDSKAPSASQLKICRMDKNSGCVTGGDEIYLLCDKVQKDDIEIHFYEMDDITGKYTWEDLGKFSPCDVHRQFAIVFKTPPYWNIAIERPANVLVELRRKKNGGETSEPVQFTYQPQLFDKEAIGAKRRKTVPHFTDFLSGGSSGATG
# [3] = target: T3, GST-Co-NF-kB (UniProt F1ARL5)
# T3 sequence: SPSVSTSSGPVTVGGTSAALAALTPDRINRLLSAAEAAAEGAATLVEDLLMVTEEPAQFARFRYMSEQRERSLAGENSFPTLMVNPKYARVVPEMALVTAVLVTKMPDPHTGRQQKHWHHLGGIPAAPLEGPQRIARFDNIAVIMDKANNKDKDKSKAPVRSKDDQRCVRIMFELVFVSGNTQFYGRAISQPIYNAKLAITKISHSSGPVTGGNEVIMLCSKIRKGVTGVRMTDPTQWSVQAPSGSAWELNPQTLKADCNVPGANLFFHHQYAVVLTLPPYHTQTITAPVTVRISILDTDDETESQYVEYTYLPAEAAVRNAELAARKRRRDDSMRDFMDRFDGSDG
# [4] = target: T4, GST-Dm-Relish (UniProt Q94527)
# T4 sequence: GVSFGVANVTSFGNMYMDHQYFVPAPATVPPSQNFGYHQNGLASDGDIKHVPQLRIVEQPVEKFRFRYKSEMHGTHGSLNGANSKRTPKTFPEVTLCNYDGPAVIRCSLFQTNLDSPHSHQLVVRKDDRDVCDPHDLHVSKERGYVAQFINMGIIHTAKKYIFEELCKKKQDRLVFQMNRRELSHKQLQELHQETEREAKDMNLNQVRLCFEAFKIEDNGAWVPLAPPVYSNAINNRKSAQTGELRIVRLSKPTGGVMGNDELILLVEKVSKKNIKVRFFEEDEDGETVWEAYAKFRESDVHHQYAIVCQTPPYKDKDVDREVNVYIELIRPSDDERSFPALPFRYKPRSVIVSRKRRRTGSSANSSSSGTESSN
# [5] = target: T5, GST-Aq-NF-kB (UniProt A9Y5G7)
# T5 sequence: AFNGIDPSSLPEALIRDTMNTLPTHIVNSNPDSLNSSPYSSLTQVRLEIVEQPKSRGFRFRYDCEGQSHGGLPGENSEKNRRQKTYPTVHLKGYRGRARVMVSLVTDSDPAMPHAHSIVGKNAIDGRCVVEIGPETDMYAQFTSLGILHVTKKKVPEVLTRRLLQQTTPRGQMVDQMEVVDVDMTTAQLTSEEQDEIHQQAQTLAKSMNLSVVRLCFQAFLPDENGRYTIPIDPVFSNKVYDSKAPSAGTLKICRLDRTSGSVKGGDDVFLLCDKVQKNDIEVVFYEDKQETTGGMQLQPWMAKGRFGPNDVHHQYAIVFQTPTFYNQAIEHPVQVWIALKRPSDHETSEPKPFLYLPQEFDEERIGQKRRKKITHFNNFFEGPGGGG
Sequence,binding signal [1] [z-score],binding signal [2] [z-score],binding signal [3] [z-score],binding signal [4] [z-score],binding signal [5] [z-score]
CCGATTAACATCACTCGCCTTCTTGATGTTAATCGGGTCTTGATTCGCTTGACGCTGCTG,-0.0181,-0.258,0.563,-0.436,-0.39
CCGATTAACATCAGTGGTCATTCTGATGTTAATCGGGTCTTGATTCGCTTGACGCTGCTG,-0.37,-0.458,-0.144,-0.362,-0.455
CCGATTAACATCACACCGCATACTGATGTTAATCGGGTCTTGATTCGCTTGACGCTGCTG,0.0927,0.309,0.953,0.318,-0.231
CCGATTAACATCATATCAAGTAGTGATGTTAATCGGGTCTTGATTCGCTTGACGCTGCTG,-0.93,-0.82,0.438,-0.379,-0.468
CCGATTAACATCAAGCACAGCGATGATGTTAATCGGGTCTTGATTCGCTTGACGCTGCTG,-0.192,-0.876,-0.871,-0.65,-0.729
CCGATTAACATCACACTACATCGTGATGTTAATCGGGTCTTGATTCGCTTGACGCTGCTG,-0.882,-0.285,-0.819,0.136,-0.763
CCGATTAACATCAGAAAATTTCATGATGTTAATCGGGTCTTGATTCGCTTGACGCTGCTG,-0.544,-0.239,-0.278,0.57,0.226
CCGATTAACATCAGGCACTAGTCTGATGTTAATCGGGTCTTGATTCGCTTGACGCTGCTG,-1.02,-0.75,-0.872,-1.06,-0.809
CCGATTAACATCAGGAATTCCCCTGATGTTAATCGGGTCTTGATTCGCTTGACGCTGCTG,11.7,12.5,7.64,9.99,11.5
CCGATTAACATCAAACATTATCTTGATGTTAATCGGGTCTTGATTCGCTTGACGCTGCTG,-0.485,-0.348,0.26,0.0169,-0.13
CCGATTAACATCACGCCCGAGAATGATGTTAATCGGGTCTTGATTCGCTTGACGCTGCTG,0.625,-0.252,-0.0368,-0.274,0.0521
CCGATTAACATCATGTAACTTGATGATGTTAATCGGGTCTTGATTCGCTTGACGCTGCTG,-0.224,-0.138,-1.1,0.0703,-0.38
CCGATTAACATCATATGCGTGACTGATGTTAATCGGGTCTTGATTCGCTTGACGCTGCTG,-0.169,-0.567,-0.853,-0.342,-0.154
CCGATTAACATCAAGTGAAGTAGTGATGTTAATCGGGTCTTGATTCGCTTGACGCTGCTG,-0.0963,0.223,-0.117,0.046,-0.251
CCGATTAACATCAGTCTGGAACTTGATGTTAATCGGGTCTTGATTCGCTTGACGCTGCTG,-0.807,-0.0716,-0.268,-0.403,-0.584
CCGATTAACATCAGGTCCTCTGGTGATGTTAATCGGGTCTTGATTCGCTTGACGCTGCTG,-0.0267,-0.442,0.117,-0.355,0.0979
CCGATTAACATCAAGCGCTTCAATGATGTTAATCGGGTCTTGATTCGCTTGACGCTGCTG,-1.07,0.0188,-2.03,-0.696,-0.577
CCGATTAACATCAAATTTCCTGATGATGTTAATCGGGTCTTGATTCGCTTGACGCTGCTG,0.25,-0.0581,0.567,0.0513,0.383
CCGATTAACATCACAATGGAGAGTGATGTTAATCGGGTCTTGATTCGCTTGACGCTGCTG,-0.718,0.0811,0.706,0.343,-0.497
CCGATTAACATCAATAGCTAGTATGATGTTAATCGGGTCTTGATTCGCTTGACGCTGCTG,-0.716,0.0025,0.298,-0.614,-0.402
CCGATTAACATCAAATTTTCCGCTGATGTTAATCGGGTCTTGATTCGCTTGACGCTGCTG,0.498,-0.621,-0.0238,0.691,0.911
CCGATTAACATCAAGTTATTTCCTGATGTTAATCGGGTCTTGATTCGCTTGACGCTGCTG,-0.46,-0.521,0.259,0.88,0.785
CCGATTAACATCAGCCTAAATACTGATGTTAATCGGGTCTTGATTCGCTTGACGCTGCTG,-0.68,-0.241,-0.14,-0.731,-0.413
CCGATTAACATCAAGGGTGTAAGTGATGTTAATCGGGTCTTGATTCGCTTGACGCTGCTG,0.62,0.478,0.742,0.336,0.333
CCGATTAACATCACATTCTCTATTGATGTTAATCGGGTCTTGATTCGCTTGACGCTGCTG,-0.509,-0.501,0.19,-0.216,-0.386
